This is one part of the list.

This experiment deals with HSkMC (human skeletal muscle cells). The experiment can be described thus: cytotoxicity call (relative viability < 0.9). The conditions noted are these: 10 µM.
On to `COc1ccc(NC(=O)Nc2ccc3c(c2)C(=O)N([C@@H](C)CO)C[C@@H](C)[C@H](CN(C)Cc2ccc(Cl)c(Cl)c2)OCCCC[C@H](C)O3)cc1`, for which the cytotoxicity call is “inactive”. Next, `C[C@H]1CC/C=C\[C@H]2O[C@@]34C=CCN(Cn5nnc6ccccc65)C(=O)[C@H]3N(CCCCCCO)C(=O)[C@@H]4[C@@H]2C(=O)O1`: “inactive”; `CCCNc1nc(Nc2ccc(C#N)cc2)ncc1C#CCCCNC(=O)[C@H](C)N(C)C(=O)/C=C/CN(C)C`: “active”; `C[C@H](CO)N1C[C@H](C)[C@H](CN(C)C(=O)Nc2ccc(-c3ccccc3)cc2)OCc2ccccc2-c2c(n(C)c3ccccc23)C1=O`: “active”.

For `COc1ccc(S(=O)(=O)N(C)C[C@H]2Oc3c(NC(=O)c4cc(C)nn4C)cccc3C(=O)N([C@H](C)CO)C[C@H]2C)cc1`, the cytotoxicity call was “inactive”.

As to `C[C@@H]1CN([C@H](C)CO)C(=O)c2cc(NC(=O)Nc3ccc4c(c3)OCO4)ccc2O[C@@H](C)CCCCO[C@H]1CN(C)Cc1ccc(Cl)c(Cl)c1`, the cytotoxicity call is “inactive”.

For `O=C(C[C@@H]1CC[C@@H]2[C@H](COC[C@H](O)CN2S(=O)(=O)c2ccc(Cl)cc2)O1)NCc1ccncn1`, the cytotoxicity call is “inactive”. As to `Cc1ccc(S(=O)(=O)Nc2ccc3c(c2)C(=O)N([C@H](C)CO)C[C@H](C)[C@H](CN(C)S(C)(=O)=O)OCCCC[C@H](C)O3)cc1`, the cytotoxicity call was “inactive”. In the case of `COc1ccc(NC(=O)N(C)C[C@H]2Oc3ccc(NC(=O)CCCCCC(=O)Nc4ccccc4N)cc3CC(=O)N([C@H](C)CO)C[C@H]2C)cc1` it was “inactive”. In the case of `C[C@@H]1CCCCO[C@H](CN(C)Cc2ccc3c(c2)OCO3)[C@H](C)CN([C@@H](C)CO)C(=O)c2cc(NC(=O)Nc3ccc(F)cc3)ccc2O1` it was “inactive”; in that of `C[C@H](CO)N1C[C@H](C)[C@H](CN(C)S(=O)(=O)c2ccc(Cl)cc2)Oc2ccc(N(C)C)cc2C1=O`, “inactive”; in that of `CC(=O)N[C@H]1CC[C@H](CCNC(=O)C2CC2)O[C@H]1CO`, “inactive”. Next, `COc1ccccc1C#Cc1ccc2c(c1)O[C@@H](CN(C)Cc1cncnc1)[C@H](C)CN([C@H](C)CO)S2(=O)=O`: “active”; `Cc1noc(C)c1S(=O)(=O)Nc1ccc2c(c1)C(=O)N([C@@H](C)CO)C[C@@H](C)[C@@H](CN(C)Cc1ccc(C(F)(F)F)cc1)OCCCC[C@H](C)O2`: “inactive”. For `C[C@H](CO)N1C[C@H](C)[C@H](CN(C)Cc2ccccc2)OCCCC[C@H](C)Oc2ccc(NC(=O)Nc3ccc(C(F)(F)F)cc3)cc2C1=O`, the cytotoxicity call was “active”. Next, `C[C@@H]1CN([C@H](C)CO)C(=O)c2cccc(NS(=O)(=O)c3cn(C)cn3)c2O[C@H]1CN(C)S(=O)(=O)c1cn(C)cn1`: “inactive”; `Cc1ccc(S(=O)(=O)Nc2ccc3c(c2)C(=O)N([C@H](C)CO)C[C@H](C)[C@H](CN(C)C(=O)C2CCCCC2)OCCCC[C@H](C)O3)cc1`: “inactive”; `C[C@H](CO)N1C[C@H](C)[C@H](CN(C)Cc2ccccc2)OCCCC[C@H](C)Oc2ccc(NC(=O)Nc3ccc4c(c3)OCO4)cc2C1=O`: “inactive”. In the case of `CC(C)/C=C1\CC/C(=C\c2ccc(C(F)(F)F)cc2)C1=O` it was “inactive”; in that of `C[C@@H](NCc1cnc(N(C)C)s1)C(N)=O`, “inactive”.

As for `COc1cccc(CNC(=O)c2cc3c(c(-c4cccc(-c5ccc(C#N)cc5)c4)n2)[C@H](CCO)N([S@@](=O)C(C)(C)C)C3)c1`, the cytotoxicity call was “inactive”. In the case of `COCC#Cc1cnc2c(c1)C(=O)N([C@@H](C)CO)C[C@@H](C)[C@H](CN(C)S(=O)(=O)c1cccc(OC)c1)O2` it was “inactive”. Consider `C=CC[C@@H](CC(=O)N[C@H](CO)Cc1ccccc1)C(=O)N[C@@H](C)COC(=O)[C@H](CC=C)CC(=O)OC(C)(C)C`, for which the cytotoxicity call is “inactive”. For the molecule `C[C@@H]1CN([C@@H](C)CO)C(=O)c2cc(NC(=O)Nc3ccccc3)ccc2O[C@@H](C)CCCCO[C@@H]1CN(C)C(=O)Cc1ccccc1`, the cytotoxicity call is “inactive”. Next, `C[C@H](CO)N1C[C@H](C)[C@@H](CN(C)C(=O)NC2CCCCC2)Oc2ccc(NC(=O)CCCN(C)C)cc2C1=O`: “inactive”; `NCCn1cccn1`: “inactive”. On to `CS(=O)(=O)N1CCN(C(=O)NCc2ccccc2)C[C@]2(CNC(=O)C2)C1`, for which the cytotoxicity call was “inactive”. Next, `C[C@@H]1CN([C@@H](C)CO)C(=O)c2cc(NC(=O)Nc3ccc4c(c3)OCO4)ccc2O[C@@H](C)CCCCO[C@@H]1CN(C)Cc1ccccc1`: “inactive”; `CN(C(=O)c1ccc(Cl)c(N2C(=O)CCS2(=O)=O)c1)[C@H]1CCS(=O)(=O)C1`: “inactive”.

The values above are taken from the antibiotic and cytotoxicity screens of Wong et al. (2023).
